# Data: the supplement of paper PMC8728848
# The other results are listed elsewhere or left out.
# B1: AT1G73650(15) (Arabidopsis thaliana), F4HRY1 (protein)
# chain: MGTVLDSHFLALTAIVTVIYQFIFFVITALFKFDQVTDFAGSTNFVILAVLTLVLKASWHFRQIVLTLLVVVWGLRLGIFLLMETRILQWGEDRRFDEQRGNIVRLIIFWTLQAVWVWTVSLPLTLVNASDGGGSLKPADVIGWTMETWVFGFLIEAAADQQKLSFKNSPENRGKWCDVGVWKYSRHPNYFGEMETLLWWGIFVAASPVLEGAEYLVIFGPLFLTLLLLFVSGIPLLEASADKKHGNSGAYRSYKKTTSPLILFPRGVYGNLPGWFKTVFLFEFPFYSRNLPQEGRLQNSKEKEVKDD
# Columns and labels:
# Experiment in all cases: glycan array binding signal (z-score within array); higher = stronger binding
# Conditions in all cases: glycan notation: IUPAC condensed, linker removed
# [1] = molecular target: GlcNAc(b1-2)[GlcNAc(b1-4)]Man(a1-3)[GlcNAc(b1-4)][GlcNAc(b1-2)Man(a1-6)]Man(b1-4)GlcNAc(b1-4)GlcNAc
# Summary of the method: (§1)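 The binding signal is a Z-score computed within each array and averaged over linkers. Arrays of the same protein sequence at different concentrations or buffers were also averaged together. Data originate from 3228 arrays in the Consortium for Functional Glycomics database, kept only where the protein sequence was available.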
# [2] = molecular target: GlcNAc(b1-2)[GlcNAc(b1-4)]Man(a1-3)[GlcNAc(b1-4)][GlcNAc(b1-2)[GlcNAc(b1-6)]Man(a1-6)]Man(b1-4)GlcNAc(b1-4)GlcNAc
# Summary of the method: as §1
# [3] = molecular target: GlcNAc(b1-2)[GlcNAc(b1-4)]Man(a1-3)[GlcNAc(b1-4)][GlcNAc(b1-2)[GlcNAc(b1-6)]Man(a1-6)]Man(b1-4)GlcNAc(b1-4)[Fuc(a1-6)]GlcNAc
# Summary of the method: as §1
# [4] = molecular target: GlcNAc(b1-2)[GlcNAc(b1-6)]Man(a1-6)[GlcNAc(b1-2)Man(a1-3)]Man(b1-4)GlcNAc(b1-4)GlcNAc
# Summary of the method: as §1
# [5] = molecular target: GlcNAc(b1-2)[GlcNAc(b1-6)]Man(a1-6)[GlcNAc(b1-2)Man(a1-3)]Man(b1-4)GlcNAc(b1-4)[Fuc(a1-6)]GlcNAc
# Summary of the method: as §1
# [6] = molecular target: GlcNAc(b1-2)[GlcNAc(b1-6)]Man(a1-6)[GlcNAc(b1-4)][GlcNAc(b1-2)Man(a1-3)]Man(b1-4)GlcNAc(b1-4)GlcNAc
# Summary of the method: as §1
# GlcNAc(b1-3)Fuc = molecular target: GlcNAc(b1-3)Fuc
# Summary of the method: as §1
# GlcNAc(b1-3)Gal = molecular target: GlcNAc(b1-3)Gal
# Summary of the method: as §1
# [7] = molecular target: GlcNAc(b1-3)Gal(b1-3)GalNAc
# Summary of the method: as §1
# GlcNAc(b1-3)Gal(b1-4)Glc = molecular target: GlcNAc(b1-3)Gal(b1-4)Glc
# Summary of the method: as §1
# [8] = molecular target: GlcNAc(b1-3)Gal(b1-4)GlcNAc
# Summary of the method: as §1
# [9] = molecular target: GlcNAc(b1-3)Gal(b1-4)GlcNAc(b1-2)Man(a1-3)[GlcNAc(b1-3)Gal(b1-4)GlcNAc(b1-2)Man(a1-6)]Man(b1-4)GlcNAc(b1-4)GlcNAc
# Summary of the method: as §1
# [10] = molecular target: GlcNAc(b1-3)Gal(b1-4)GlcNAc(b1-2)Man(a1-3)[GlcNAc(b1-3)Gal(b1-4)GlcNAc(b1-2)Man(a1-6)]Man(b1-4)GlcNAc(b1-4)[Fuc(a1-6)]GlcNAc
# Summary of the method: as §1
# [11] = molecular target: GlcNAc(b1-3)Gal(b1-4)GlcNAc(b1-2)[GlcNAc(b1-3)Gal(b1-4)GlcNAc(b1-6)]Man(a1-6)[GlcNAc(b1-3)Gal(b1-4)GlcNAc(b1-2)Man(a1-3)]Man(b1-4)GlcNAc(b1-4)GlcNAc
# Summary of the method: as §1
# [12] = molecular target: GlcNAc(b1-3)Gal(b1-4)GlcNAc(b1-3)Gal(b1-4)GlcNAc
# Summary of the method: as §1
# [13] = molecular target: GlcNAc(b1-3)Gal(b1-4)GlcNAc(b1-3)Gal(b1-4)GlcNAc(b1-2)Man(a1-3)[GlcNAc(b1-3)Gal(b1-4)GlcNAc(b1-3)Gal(b1-4)GlcNAc(b1-2)Man(a1-6)]Man(b1-4)GlcNAc(b1-4)GlcNAc
# Summary of the method: as §1
# [14] = molecular target: GlcNAc(b1-3)Gal(b1-4)GlcNAc(b1-3)Gal(b1-4)GlcNAc(b1-2)Man(a1-3)[GlcNAc(b1-3)Gal(b1-4)GlcNAc(b1-3)Gal(b1-4)GlcNAc(b1-2)Man(a1-6)]Man(b1-4)GlcNAc(b1-4)[Fuc(a1-6)]GlcNAc
# Summary of the method: as §1
# [15] = molecular target: GlcNAc(b1-3)Gal(b1-4)GlcNAc(b1-3)Gal(b1-4)GlcNAc(b1-2)[GlcNAc(b1-3)Gal(b1-4)GlcNAc(b1-3)Gal(b1-4)GlcNAc(b1-6)]Man(a1-6)[GlcNAc(b1-3)Gal(b1-4)GlcNAc(b1-3)Gal(b1-4)GlcNAc(b1-2)Man(a1-3)]Man(b1-4)GlcNAc(b1-4)[Fuc(a1-6)]GlcNAc
# Summary of the method: as §1
# [16] = molecular target: GlcNAc(b1-3)Gal(b1-4)GlcNAc(b1-3)Gal(b1-4)GlcNAc(b1-3)Gal(b1-4)GlcNAc(b1-2)Man(a1-3)[GlcNAc(b1-3)Gal(b1-4)GlcNAc(b1-3)Gal(b1-4)GlcNAc(b1-3)Gal(b1-4)GlcNAc(b1-2)Man(a1-6)]Man(b1-4)GlcNAc(b1-4)GlcNAc
# Summary of the method: as §1
# [17] = molecular target: GlcNAc(b1-3)Gal(b1-4)GlcNAc(b1-3)Gal(b1-4)GlcNAc(b1-3)Gal(b1-4)GlcNAc(b1-2)Man(a1-3)[GlcNAc(b1-3)Gal(b1-4)GlcNAc(b1-3)Gal(b1-4)GlcNAc(b1-3)Gal(b1-4)GlcNAc(b1-2)Man(a1-6)]Man(b1-4)GlcNAc(b1-4)[Fuc(a1-6)]GlcNAc
# Summary of the method: as §1
# [18] = molecular target: GlcNAc(b1-3)Gal(b1-4)GlcNAc(b1-3)Gal(b1-4)GlcNAc(b1-3)Gal(b1-4)GlcNAc(b1-2)[GlcNAc(b1-3)Gal(b1-4)GlcNAc(b1-3)Gal(b1-4)GlcNAc(b1-3)Gal(b1-4)GlcNAc(b1-6)]Man(a1-6)[GlcNAc(b1-3)Gal(b1-4)GlcNAc(b1-3)Gal(b1-4)GlcNAc(b1-3)Gal(b1-4)GlcNAc(b1-2)Man(a1-3)]Man(b1-4)GlcNAc(b1-4)[Fuc(a1-6)]GlcNAc
# Summary of the method: as §1
# [19] = molecular target: GlcNAc(b1-3)Gal(b1-4)GlcNAc(b1-3)Gal(b1-4)GlcNAc(b1-3)Gal(b1-4)GlcNAc(b1-3)Gal(b1-4)GlcNAc(b1-2)Man(a1-3)[GlcNAc(b1-3)Gal(b1-4)GlcNAc(b1-3)Gal(b1-4)GlcNAc(b1-3)Gal(b1-4)GlcNAc(b1-3)Gal(b1-4)GlcNAc(b1-2)Man(a1-6)]Man(b1-4)GlcNAc(b1-4)GlcNAc
# Summary of the method: as §1
# [20] = molecular target: GlcNAc(b1-3)Gal(b1-4)GlcNAc(b1-3)Gal(b1-4)GlcNAc(b1-3)Gal(b1-4)GlcNAc(b1-3)Gal(b1-4)GlcNAc(b1-2)Man(a1-3)[GlcNAc(b1-3)Gal(b1-4)GlcNAc(b1-3)Gal(b1-4)GlcNAc(b1-3)Gal(b1-4)GlcNAc(b1-3)Gal(b1-4)GlcNAc(b1-2)Man(a1-6)]Man(b1-4)GlcNAc(b1-4)[Fuc(a1-6)]GlcNAc
# Summary of the method: as §1
# [21] = molecular target: GlcNAc(b1-3)Gal(b1-4)GlcNAc(b1-3)Gal(b1-4)GlcNAc(b1-3)Gal(b1-4)GlcNAc(b1-3)Gal(b1-4)GlcNAc(b1-2)[GlcNAc(b1-3)Gal(b1-4)GlcNAc(b1-3)Gal(b1-4)GlcNAc(b1-3)Gal(b1-4)GlcNAc(b1-3)Gal(b1-4)GlcNAc(b1-6)]Man(a1-6)[GlcNAc(b1-3)Gal(b1-4)GlcNAc(b1-3)Gal(b1-4)GlcNAc(b1-3)Gal(b1-4)GlcNAc(b1-3)Gal(b1-4)GlcNAc(b1-2)Man(a1-3)]Man(b1-4)GlcNAc(b1-4)[Fuc(a1-6)]GlcNAc
# Summary of the method: as §1
# [22] = molecular target: GlcNAc(b1-3)Gal(b1-4)GlcNAc(b1-3)Gal(b1-4)GlcNAc(b1-3)GalNAc
# Summary of the method: as §1
# [23] = molecular target: GlcNAc(b1-3)Gal(b1-4)GlcNAc(b1-3)GalNAc
# Summary of the method: as §1
# [24] = molecular target: GlcNAc(b1-3)Gal(b1-4)GlcNAc(b1-3)[GlcNAc(b1-3)Gal(b1-4)GlcNAc(b1-3)]GalNAc
# Summary of the method: as §1
# [25] = molecular target: GlcNAc(b1-3)Gal(b1-4)GlcNAc(b1-6)[Gal(b1-3)]GalNAc
# Summary of the method: as §1
# [26] = molecular target: GlcNAc(b1-3)Gal(b1-4)GlcNAc(b1-6)[GlcNAc(b1-3)Gal(b1-3)]GalNAc
# Summary of the method: as §1
# [27] = molecular target: GlcNAc(b1-3)Gal(b1-4)GlcNAc(b1-6)[GlcNAc(b1-3)]Gal(b1-4)GlcNAc
# Summary of the method: as §1
# GlcNAc(b1-3)GalNAc = molecular target: GlcNAc(b1-3)GalNAc
# Summary of the method: as §1
# GlcNAc(b1-3)Man = molecular target: GlcNAc(b1-3)Man
# Summary of the method: as §1
# [28] = molecular target: GlcNAc(b1-3)[GlcNAc(b1-4)][GlcNAc(b1-6)]GlcNAc
# Summary of the method: as §1
# [29] = molecular target: GlcNAc(b1-3)[GlcNAc(b1-6)]Gal(b1-4)GlcNAc
# Summary of the method: as §1
# [30] = molecular target: GlcNAc(b1-3)[GlcNAc(b1-6)]GalNAc
# Summary of the method: as §1
# [31] = molecular target: GlcNAc(b1-4)Gal(b1-4)GlcNAc
# Summary of the method: as §1
# GlcNAc(b1-4)GlcNAc = molecular target: GlcNAc(b1-4)GlcNAc
# Summary of the method: as §1
# [32] = molecular target: GlcNAc(b1-4)GlcNAc(b1-4)GlcNAc
# Summary of the method: as §1
binder,measurement,setting,value
B1,glycan array binding signal (z-score),[1],-0.416
same,glycan array binding signal (z-score),[2],-0.515
same,glycan array binding signal (z-score),[3],-0.195
same,glycan array binding signal (z-score),[4],-0.473
same,glycan array binding signal (z-score),[5],0.047
same,glycan array binding signal (z-score),[6],-0.322
same,glycan array binding signal (z-score),GlcNAc(b1-3)Fuc,-0.6
same,glycan array binding signal (z-score),GlcNAc(b1-3)Gal,-0.339
same,glycan array binding signal (z-score),[7],0.587
same,glycan array binding signal (z-score),GlcNAc(b1-3)Gal(b1-4)Glc,-0.31
same,glycan array binding signal (z-score),[8],-0.522
same,glycan array binding signal (z-score),[9],-0.358
same,glycan array binding signal (z-score),[10],-0.144
same,glycan array binding signal (z-score),[11],-0.133
same,glycan array binding signal (z-score),[12],-0.505
same,glycan array binding signal (z-score),[13],0.308
same,glycan array binding signal (z-score),[14],-0.505
same,glycan array binding signal (z-score),[15],-0.333
same,glycan array binding signal (z-score),[16],-0.334
same,glycan array binding signal (z-score),[17],-0.04
same,glycan array binding signal (z-score),[18],0.008
same,glycan array binding signal (z-score),[19],0.989
same,glycan array binding signal (z-score),[20],-0.574
same,glycan array binding signal (z-score),[21],0.192
same,glycan array binding signal (z-score),[22],-0.375
same,glycan array binding signal (z-score),[23],-0.774
same,glycan array binding signal (z-score),[24],-0.581
same,glycan array binding signal (z-score),[25],0.716
same,glycan array binding signal (z-score),[26],-0.702
same,glycan array binding signal (z-score),[27],-0.384
same,glycan array binding signal (z-score),GlcNAc(b1-3)GalNAc,0.228
same,glycan array binding signal (z-score),GlcNAc(b1-3)Man,-0.038
same,glycan array binding signal (z-score),[28],-0.48
same,glycan array binding signal (z-score),[29],-0.355
same,glycan array binding signal (z-score),[30],0.394
same,glycan array binding signal (z-score),[31],-0.398
same,glycan array binding signal (z-score),GlcNAc(b1-4)GlcNAc,-0.624
same,glycan array binding signal (z-score),[32],-0.301
